# Measurements from ChEMBL document CHEMBL4888484, “Replenishing the malaria drug discovery pipeline: Screening and hit evaluation of the MMV Hit Generation Library 1 (HGL1) against asexual blood stage Plasmodium falciparum ,using a nano luciferase reporter read-out” (2022).
# Out of some 4,800 compounds screened, about 420 (8.8%) showed an effect of 50% or more. This is one part of the list.
# Tested on: Plasmodium falciparum
# Experiment: Confirmatory screen in NF54 nanoGlo assay, in single point, at 2uM, 72h
# Assay type: functional, Erythrocyte
# Settings: timepoint 72 hour
row,Structure (SMILES),% Inhibition
1,Cn1c(-c2ccccc2)cn2cc(-c3ccc(Cl)cc3)nc12,7%
2,Cc1ncsc1C=Cc1ncc(C(=O)O)c(C(C)C)n1,-17%
3,Cc1nn(C2CCCC2)c2nc(-c3cc(CN(C)C)cs3)[nH]c12,-4%
4,Cc1c(N[C@@H](C)C2CCOCC2)cccc1C(N)=O,-2%
5,CCOC(=O)C1CCC(CN(Cc2ccc(OC)cc2)S(=O)(=O)c2cc(C(=O)Nc3ccc(OCC)cc3)ccc2F)CC1 (stereo unspecified),50%
6,Cc1c(NC(=O)CC(C)(C)CC(=O)N2CCN(c3ccccc3F)CC2)c(=O)n(-c2ccccc2)n1C,2%
7,Cc1ccnc(N[C@H](c2cccs2)c2cc(C)sc2NC(=O)c2ccccc2)c1,-3%
8,Cc1cc2sc(-c3ccccc3)c([O-])[n+]2cn1,0%
9,CNCCCNC(=O)c1ccc(Br)cc1C,5%
10,N[C@@H](C(=O)Nc1nnc(Cc2ccsc2)s1)c1ccccc1,2%
11,O=C(Cn1cnc2nc(N3CCCCC3)sc2c1=O)Nc1cc(Cl)cc(Cl)c1,-3%
12,O=C(NCCCn1cccn1)c1cncc(Br)c1,-2%
13,CNC(=O)[C@H]1CN(S(=O)(=O)c2cccs2)CC12CCCCC2,-11%
14,Cc1cc(NC(=O)Cn2c(=O)n(CC(C)C)c(=O)c3sccc32)no1,-13%
15,CC(NS(C)(=O)=O)C(=O)N1CCC(F)(c2cc(F)cc(F)c2)C1 (stereo unspecified),-1%
16,CC1(C)CC[C@H](CNC(=O)c2cnn(-c3ccc(F)cc3)n2)O1,3%
17,CN(C)c1noc(CN2CCc3ccc(F)cc3C2)n1,25%
18,CC[C@H]1Cn2c(C(=O)NC3CCCCC3)cc3c(Cl)ccc(c32)O1,-7%
19,Cc1ccc(C(=O)C[n+]2cc(-c3ccc(Br)cc3)n(C)c2N)cc1,-18%
20,COc1ccc2c(c1)CCN2S(=O)(=O)c1ccc2c(c1)OCCO2,-4%
21,CCc1c2c(=O)n(-c3nc4ccccc4s3)[nH]c2cc(=O)n1CCCN1CCOCC1,43%
22,COc1ccc(C2=NC3=S(N2c2ccccc2)N(C(C)=O)C(C(Cl)(Cl)Cl)N3c2ccccc2)cc1 (stereo unspecified),0%
23,CCC(CC)C(=O)Nc1cccc(O)c1,5%
24,Nc1nc(-c2ccccc2)c2cc3c(nn12)C[C@H](c1ccc(F)cc1)CC3=O,1%
25,Cc1onc(C(=O)NCc2cnn(C)c2C)c1COc1cccc(C(F)(F)F)c1,-9%
26,COCc1c(C(=O)N2CCC[C@@H]2CCc2ncc(C)n2C(C)C)noc1C,-3%

row,Structure (SMILES),% Inhibition
1,CCNc1nc(C)cc(Nc2ccc(NS(=O)(=O)c3c(C)noc3C)cc2)n1,92%
2,CCOc1ccc2sc(NC(=O)Cn3cnc4nc(N5CCCCC5)sc4c3=O)nc2c1,-5%
3,CC(C)(C)Nc1nc2nonc2nc1NC1CCCCC1,-1%
4,Cn1nc(N)c2cc(C3OCCCO3)ccc21,-10%
5,CC(C)c1cc(=O)[nH]c(-n2nc(C3CC3)cc2NC(=O)Cc2ccc(Cl)cc2)n1,69%
6,O=C(NCCCN1CCOCC1)c1ccc(-c2cnc(NC3CCCCC3)nc2)cc1,-8%
7,CCc1ccc(CN2CCN(Cc3cccc(Oc4ccccc4)c3)CC2)cc1,2%
8,CCN1CCC(CCNC(=O)c2cc3c(s2)N(CC)CCCC3)CC1,-7%
9,CC(C)c1ccc([C@H](C(=O)Nc2ccc3c(c2)OCO3)N(Cc2ccccc2)C(=O)Cn2nnc3ccccc32)cc1,-11%
10,Cc1cc(Br)cc(N[C@H](c2cccnc2)c2ncc[nH]2)c1,40%
11,COc1cc([C@@H]2C=C(c3ccc(Cl)cc3)Nc3ncnn32)ccc1OCc1ccc(Cl)cc1,3%
12,CC(=O)N(CCN1CCOCC1)[C@H]1CCN(S(=O)(=O)c2cccc(Cl)c2)C1,1%
13,CN1c2cc(C(=O)N3CCN(c4ccccc4Cl)CC3)ccc2C(=O)N2CCCC[C@H]21,-7%
14,CC1(C)C(=O)NCCN1C(=O)c1ccc2nccnc2c1,0%
15,Cc1nc([C@H]2CC(=O)N(c3ccccc3)C2)no1,-16%
16,CN1N=C(C(=O)NCc2ccccn2)CCC1=O,1%
17,Nc1c(-c2ccc(F)cc2)nsc1C(=O)NC1CCN(Cc2ccccc2)CC1,-4%
18,Cn1c(=O)c2c(-c3ccc(Cl)cc3)n(-c3cccc4cccc(N)c34)cc2n(C)c1=O,91%
19,Cc1c(CCO)c(=O)n(C)n1C(=O)c1ccc(Cl)cc1,4%
20,COc1cc(C(=O)Nc2ccc(Oc3cccc4[nH]ccc34)nc2)cc2c1OCCCO2,7%
21,COc1ccc2nc(O)c(C(=O)Nc3ccc4c(c3F)CCNC4)cc2c1,99%
22,COc1cc(F)c(NCc2csc(C3CC3)n2)cc1OC,-5%
23,COc1cccc(CNCCCN2CCOCC2)c1OCc1ccc(F)cc1Cl,2%
24,CCn1nccc1CN(CCc1ccc(OC)c(OC)c1)S(=O)(=O)c1cnn(CC)c1C,-4%
25,O=C1CCN(C(=O)COc2ccc(-c3ccccc3)cc2Cl)CCN1,-13%
26,COc1nccnc1N(C(C)=O)S(=O)(=O)c1ccc(NC(C)=O)cc1,-13%

row,Structure (SMILES),% Inhibition
1,Cc1cc(Cl)c2c(c1)C1(NC(CCC(=O)O)[C@H]3C(=O)N(C4CCCCC4)C(=O)[C@H]31)C(=O)N2 (stereo partly specified),-7%
2,O=C(NCCc1cccnc1)OCC(F)(F)F,-6%
3,NC(=O)c1ccc(NC(=O)N2CCC[C@H](c3cc(F)ccc3F)C2)cc1F,-10%
4,COCc1cc2nn(CC(=O)Nc3ccc(F)cc3)c(=O)n2c(-c2ccccc2)n1,-11%
5,CCc1cc(N2CC[C@H]3[C@H](CCC(=O)N3CCCCO)C2)nc(C)n1,-11%
6,CC(C)(C)OC(=O)N1CCCC(C(O)C(F)(F)F)C1 (stereo unspecified),6%
7,COc1ccc(NC(=O)CCC(=O)NCc2ccco2)cc1,6%
8,COc1ccc(-c2[nH]ncc2C(=O)NCC2CCCCC2)cc1OC,2%
9,COc1ccc(N[C@@H](C)C(=O)Nc2nc(C)cs2)c(OC)c1,2%
10,CCn1nccc1C(=O)N1CC[C@H](CC(=O)N(C)Cc2ccccc2)C1,-8%
11,CC(C)OC(=O)N(CCOC(=O)Nc1cccc(Cl)c1)CCOC(=O)Nc1cccc(Cl)c1,-15%
12,Cc1ccccc1-c1cc2c(N3CCN(C4CCCCC4)CC3)nccn2n1,-4%
13,Nc1ccc(Cl)c(NC2=NN(c3c(Cl)cc(Cl)cc3Cl)C(=O)C2)c1,0%
14,O=C1c2[nH]nc(-c3cccs3)c2[C@@H](c2cccc(O)c2)N1c1nccs1,-3%
15,Cc1ccc(NC(=O)CN2N=C(C(=O)Nc3ccccc3)CCC2=O)cc1,-18%
16,CCOCCN(C)Cc1n[nH]c(C)c1C(=O)OCC,-7%
17,CC[n+]1c(/C=C/N(C)c2ccccc2)oc2ccccc21,80%
18,Nc1nc(-c2ccc(N3CCCC3)cc2)cs1,-5%
19,COC(=O)CN(CC(=O)Nc1ccc(C)c(C)c1)Cc1cnn(C)c1,-10%
20,Cc1ccc[n+](Cc2ccc3ccccc3n2)c1,53%
21,CCOC(=O)c1cc(-c2ccccc2)nnc1Oc1ccccc1,1%
22,COc1ccc(C(=O)N(C(=O)c2ccc(OC)cc2)c2c3c(nc4ccccc24)CCCC3)cc1,72%
23,Cc1nn(C(F)F)c(C)c1S(=O)(=O)Nc1ncn(Cc2ccccc2Cl)n1,-5%
24,CCCn1c(C(=O)N2CCOCC2)cc2sccc21,2%
25,COc1cc([C@H]2CC(=O)Nc3c2cnn3C)ccc1OCc1ccccc1,-10%
26,Cc1cc(C)cc(-c2nnc(NC(=O)N3CCC[C@@H]3CO)s2)c1,-8%

row,Structure (SMILES),% Inhibition
1,CCCn1c(C)ccc(-c2noc(CCC(=O)NCc3cccnc3)n2)c1=O,-6%
2,CCCCN1CCN(C(=O)CN2CCN(Cc3ccc(F)cc3Cl)C2=O)CC1,-8%
3,CC(=O)N(C)CC(=O)Nc1ccccc1NCC1CCCCC1,-1%
4,O=C(Nc1ccc(OC(F)F)cc1)c1cc(C2CC2)nc2c1c(C1CC1)nn2-c1ccccc1,-7%
5,O=C(Nc1cccc(OCCn2cncn2)c1)[C@@H]1CCCc2ccccc21,-8%
6,O=C(Nc1cc(-c2onc3c2CCCC3)cc(C(F)(F)F)c1)c1cncc(Br)c1,95%
7,CCc1ccc(C(=O)N2CCCN(c3nc(C4CCOCC4)nc4c3cnn4-c3ccccc3)CC2)cc1,29%
8,O=C(C[C@H]1CCN(C(=O)C2CCC2)C1)NCc1ccccc1,-1%
9,CC(=O)Nc1cc(C)c(S(=O)(=O)O)cc1C,5%
10,CN1CCC2(CC1)Nc1ccccc1-c1nc(-c3ccco3)nn12,4%
11,C[C@H]1CN(C(=O)c2cc(Cl)cc(Br)c2F)CCS1(=O)=O,2%
12,CCn1cc([C@H](CC(=O)N2CCN(Cc3ccc4c(c3)OCO4)CC2)c2cccc(OC)c2)c2ccccc21,1%
13,Cc1nc2n(Cc3ccc(Cl)cc3)c3ccccc3n2n1,4%
14,O=C(c1cc(-c2ccccc2)n[nH]1)N1CCC(N2CCc3sccc3C2)CC1,21%
15,c1ccc(N2CCN(CCN[C@H]3CCc4cc5c(cc43)CCC5)CC2)cc1,8%
16,O=S(=O)(c1ccco1)N1CC[C@H](Oc2ccccc2)C1,2%
17,Cc1nn2c(C(F)F)cc(-c3ccc4c(c3)OCO4)nc2c1Cl,-5%
18,CC(C)C1(C)CC(=O)N(C(C(=O)O)c2ccccc2)C1=O (stereo unspecified),-11%
19,Cc1n[nH]c(C)c1NC(=O)CN1CC(C)OC(C)C1 (stereo unspecified),-6%
20,O=C(Oc1cccc2cccnc12)c1ccc(-c2ccccc2)cc1,2%
21,O=C(Nc1nnc(C2CC2)s1)[C@@H]1Cc2ccccc2O1,-3%
22,O=C(c1ccccc1COC1CCOCC1)N1CCC[C@H](c2nnc[nH]2)C1,2%
23,C=CCNC(=NC)NC1CCN(c2cc(OC)cc(OC)c2)CC1,-2%
